Assay results as given in PubChem BioAssay AID2010 (Broad Institute, 2009).
The full ranking holds about 4,100 compounds; the median of “activity change, negative = cytotoxicity” is about -43, and the highest 2% start at about 39. This is one part of the list. Measured potencies and affinities stand elsewhere. Entries without a call are filed as inconclusive in the source.

Test: cytotoxicity toward NIH3T3 fibroblasts, dose response, counter-screen, cell-based, ATP luminescence, mouse fibroblasts (AID 2010)
Details: NIH3T3 viability, ATP luminescence (CellTiter-Glo), 90 h; at 3 µM (top of the series)

Row | Structure (SMILES) | activity change, negative = cytotoxicity [%]
1 | C[C@H]1C[C@@H](C)C(=O)[C@@H]([C@H](O)CC2CC(=O)NC(=O)C2)C1 | -70.9
